Data published in the supplement of paper PMC3722116.

Experiments:
[1] = compound: T1, OC(c1cc(C(F)(F)F)nc2c(C(F)(F)F)cccc12)C1CCCCN1 [mefloquine]; test: slope of the dose-response curve (dimensionless); higher = steeper concentration-effect curve
Protocol: (§1)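 Hypoxanthine uptake by fresh isolates, duplicate serial dilutions, 24 h of drug plus 18 h after the label; sigmoid fit per isolate.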

[2] = compound: T2, CCCCN(CCCC)CC(O)c1cc(Cl)cc2c1-c1ccc(Cl)cc1/C2=C/c1ccc(Cl)cc1 [lumefantrine]; test: as above
Protocol: as §1

[3] = compound: T3, CCN(CC)CCCC(C)Nc1ccnc2cc(Cl)ccc12 [chloroquine]; test: as above
Protocol: as §1

[4] = compound: T4, C[C@H]1[C@H](OC(=O)CCC(=O)O)O[C@@H]2O[C@@]3(C)CC[C@H]4[C@H](C)CC[C@@H]1[C@@]24OO3 [artesunate]; test: as above
Protocol: as §1

[5] = compound: T1, mefloquine
Protocol: as §1

[6] = compound: T2, lumefantrine
Protocol: as §1

[7] = compound: T3, chloroquine
Protocol: as §1

[8] = compound: T4, artesunate
Protocol: as §1

Test System	slope [1]	slope [2]	slope [3]	slope [4]	EC50 of parasite growth [5] [µg/mL]	EC50 of parasite growth [6] [µg/mL]	EC50 of parasite growth [7] [µg/mL]	EC50 of parasite growth [8] [µg/mL]
Plasmodium falciparum isolate 44 (pfmdr1 allele: 86N, 1042N, pfmdr1 copies: 1)	1.18	0.975	5.73	10	0.0228	0.0255	0.11	0.00191
Plasmodium falciparum isolate 346 (pfmdr1 allele: 86N, 1042N, pfmdr1 copies: 1)	3.08	2.02	5.19	8.56	0.0241	0.0208	0.0293	0.00216
Plasmodium falciparum isolate 8 (pfmdr1 allele: 86N, 1042N, pfmdr1 copies: 1)	1.61	2.11	4.27	2.66	0.0106	0.0115	0.108	0.00082
Plasmodium falciparum isolate 7 (pfmdr1 allele: 86Y, pfmdr1 copies: 1)	1.86	1.57	1.91	4.93	0.00354	0.00346	0.101	0.000572
Plasmodium falciparum isolate 260 (pfmdr1 allele: 86N, 1042N, pfmdr1 copies: 1)	2.82	1.76	3.88	5.37	0.04	0.0202	0.162	0.00337
Plasmodium falciparum isolate 36 (pfmdr1 allele: 86N, 1042N, pfmdr1 copies: 3)	2.36	2.12	2.33	2.72	0.0312	0.00851	0.165	0.000484
Plasmodium falciparum isolate 465 (pfmdr1 allele: 1042D, pfmdr1 copies: 1)	2.04	1.89	3.57	1.76	0.00255	0.00181	0.184	0.000321
Plasmodium falciparum isolate 170 (pfmdr1 allele: 1042D, pfmdr1 copies: 1)	1.51	1.82	3.98	3.52	0.0131	0.00693	0.127	0.00108
Plasmodium falciparum isolate 421 (pfmdr1 allele: 86N, 1042N, pfmdr1 copies: 1)	3.33	2.33	5.8	9.96	0.0407	0.0398	0.183	0.000511
Plasmodium falciparum isolate 144 (pfmdr1 allele: 86N, 1042N, pfmdr1 copies: 1)	2.96	2.71	4.58	4.81	0.0288	0.05	0.0702	0.00122
Plasmodium falciparum isolate 176 (pfmdr1 allele: 86N, 1042N, pfmdr1 copies: 1)	5	2.97	4.68	6.65	0.0549	0.0187	0.135	0.00134
Plasmodium falciparum isolate 94 (pfmdr1 allele: 86N, 1042N, pfmdr1 copies: 1)	3.19	1.71	4.5	5.56	0.042	0.0331	0.277	0.00138
Plasmodium falciparum isolate 25 (pfmdr1 allele: 86N, 1042N, pfmdr1 copies: 3)	1.27	1.54	1.27	4.71	0.0628	0.0254	0.114	0.00177
Plasmodium falciparum isolate 321 (pfmdr1 allele: 86Y, pfmdr1 copies: 1)	3.71	4.4	8.08	9.97	0.00683	0.0221	0.147	0.00169
Plasmodium falciparum isolate 267 (pfmdr1 allele: 86N, 1042N, pfmdr1 copies: 1)	2.8	1.36	4.75	5.66	0.0314	0.007	0.251	0.000753
Plasmodium falciparum isolate 100 (pfmdr1 allele: 86N, 1042N, pfmdr1 copies: 1)	2.98	1.89	3.03	7.54	0.0357	0.0187	0.179	0.00109
Plasmodium falciparum isolate 344 (pfmdr1 allele: 86N, 1042N, pfmdr1 copies: 2)	2.26	3.08	2.41	9.51	0.0346	0.0101	0.0551	0.00157

Test System	slope [1]	slope [2]	slope [3]	slope [4]	EC50 of parasite growth [5] [µg/mL]	EC50 of parasite growth [6] [µg/mL]	EC50 of parasite growth [7] [µg/mL]	EC50 of parasite growth [8] [µg/mL]
Plasmodium falciparum isolate 32 (pfmdr1 allele: 86N, 1042N, pfmdr1 copies: 1)	2.42	1.84	11	7.09	0.0332	0.052	0.0871	0.000641
Plasmodium falciparum isolate 38 (pfmdr1 allele: 1042D, pfmdr1 copies: 1)	2.68	1.72	4	6.87	0.0413	0.0153	0.206	0.000794
Plasmodium falciparum isolate 254 (pfmdr1 allele: 86N, 1042N, pfmdr1 copies: 2)	3.71	3.14	2.59	10	0.103	0.0701	0.133	0.000809
Plasmodium falciparum isolate 90 (pfmdr1 allele: 86N, 1042N, pfmdr1 copies: 2)	2.51	1.91	2.74	9.66	0.0499	0.0613	0.0452	0.00105
Plasmodium falciparum isolate 125 (pfmdr1 allele: 86N, 1042N, pfmdr1 copies: 1)	2.21	2.25	2.49	5.12	0.0249	0.0183	0.149	0.000377
Plasmodium falciparum isolate 285 (pfmdr1 allele: 86N, 1042N, pfmdr1 copies: 1)	3.38	3.19	3.59	4.35	0.0342	0.0208	0.0583	0.00127
Plasmodium falciparum isolate 290 (pfmdr1 allele: 86N, 1042N, pfmdr1 copies: 1)	1.49	2.07	3.32	1.93	0.00554	0.00164	0.0595	0.000173
Plasmodium falciparum isolate 472 (pfmdr1 allele: 86N, 1042N, pfmdr1 copies: 2)	3.07	2.87	2.6	9.99	0.0661	0.0425	0.112	0.000579
Plasmodium falciparum isolate 461 (pfmdr1 allele: 86N, 1042N, pfmdr1 copies: 1)	–	3.66	2.41	5.35	–	0.0428	0.135	0.0016
Plasmodium falciparum isolate 169 (pfmdr1 allele: 86N, 1042N, pfmdr1 copies: 2)	2.73	3.45	3.61	5.39	0.0725	0.0457	0.0709	0.0011
Plasmodium falciparum isolate 418 (pfmdr1 allele: 86N, 1042N, pfmdr1 copies: 1)	–	1.09	2.53	1.51	–	0.00288	0.0449	0.000107
Plasmodium falciparum isolate 341 (pfmdr1 allele: 86N, 1042N, pfmdr1 copies: 2)	2.49	2.67	2.56	–	0.0755	0.0751	0.0541	0.000801
Plasmodium falciparum isolate 137 (pfmdr1 allele: 86N, 1042N, pfmdr1 copies: 1)	–	1.06	1.89	2.24	–	0.00253	0.133	0.000265
Plasmodium falciparum isolate 372 (pfmdr1 allele: 86N, 1042N, pfmdr1 copies: 1)	3.96	2.17	3.55	–	0.0507	0.0286	0.0716	–
Plasmodium falciparum isolate 304 (pfmdr1 allele: 86N, 1042N, pfmdr1 copies: 1)	3.82	2.11	2.78	–	0.0475	0.0561	0.0973	–
Plasmodium falciparum isolate 234 (pfmdr1 allele: 86Y, pfmdr1 copies: 1)	3.3	1.77	4.43	–	0.0551	0.0487	0.082	–
Plasmodium falciparum isolate 177 (pfmdr1 allele: 86N, 1042N, pfmdr1 copies: 1)	2.82	1.15	3.75	–	0.053	0.0605	0.0987	–

Growth of fresh clinical P. falciparum isolates by hypoxanthine uptake over 42 h; for most isolates 1.6-1,647 nM mefloquine, 0.044-87 nM artesunate, 10-10,256 nM chloroquine, 2.4-236 nM lumefantrine. EC50, lower = more sensitive; slope from the same fit, higher = steeper. No active / inactive call. Fits with a coefficient of variation above 100% are not listed here; 15-28% of fits exceed 15%. Isolates are numbered anew.
